# Article PMC6212790
# Some of the results follow. At the low end of the ranking the order means little.
# Target: T1, GST-Rok (full length) (UniProt O34857)
# T1 sequence: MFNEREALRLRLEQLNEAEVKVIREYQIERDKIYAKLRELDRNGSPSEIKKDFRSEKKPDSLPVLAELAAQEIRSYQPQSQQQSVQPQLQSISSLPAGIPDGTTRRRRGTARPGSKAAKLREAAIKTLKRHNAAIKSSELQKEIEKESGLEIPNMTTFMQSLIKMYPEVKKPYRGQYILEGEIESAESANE
# Test: protein binding microarray;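 also: rank score from −0.5 (least bound) to 0.5 (best bound)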
# Settings: Rok is a gene silencer of Bacillus subtilis; high values mean tight binding; most listed sequences are background and not binding sites; double strand, one strand shown
row,Sequence,binding signal [E-score]
1,CCGTAGCG,0.0211
2,AGTCTAGC,0.0454
3,CACCCACC,0.0542
4,CTCCACCC,-0.287
5,AGTGCGCC,-0.237
6,AGCCACAC,-0.288
7,CTCTTAGA,-0.265
8,GATGATCA,-0.0224
9,AGGCCTCA,-0.155
10,GATAGAGC,-0.173
11,ACGACAAT,0.0926
12,GAATGAAA,-0.00799
13,CCCCCTTC,-0.384
14,CCCGATTC,-0.238
15,ACAATAAT,0.262
16,AGTGCAAC,-0.235
17,ACATTCCA,0.0173
18,CAAAGGTG,-0.263
19,GGCAAACA,-0.145
20,CAGACTCA,-0.163
21,AAGTTCGT,0.129
22,CACTGATA,-0.0773
23,TAGCACTA,0.21
24,ACCGACTC,-0.0931
25,CCTCCTAA,-0.164

row,Sequence,binding signal [E-score]
1,GCACTCCC,-0.318
2,AAACTCTG,0.137
3,CTTCCATA,0.121
4,ACTGGTGA,-0.0538
5,CGATTAAA,0.0882
6,ACATGCCA,0.0568
7,ATTCGTCC,-0.224
8,GGCTACCA,0.216
9,ATTCGCAG,0.161
10,TTGAGCAA,-0.0216
11,CATTCGGA,-0.0335
12,ATTAATGC,0.332
13,AGGGACCG,-0.394
14,GGGCATAA,-0.0617
15,CTTCGAAA,-0.139
16,ATAACACG,0.22
17,TAACTCCA,0.0342
18,CTGAGCAG,-0.179
19,GAATTCGA,0.253
20,TAACCACA,0.108
21,AGTCCTCC,-0.288
22,ACAACTCA,0.097
23,AGTACACC,0.164
24,CCTTGGAG,-0.117
25,CAGCCAGA,-0.104

row,Sequence,binding signal [E-score]
1,ACCTATCT,0.332
2,ATCGGTTA,0.00622
3,CACGTTTA,0.0471
4,AGGTGTTG,0.0952
5,GCTTCCTA,0.0871
6,ATATTGAG,0.21
7,ATAGACCC,-0.0819
8,CCAAATTA,0.249
9,ATGAGCCA,-0.137
10,ACTCGAGC,-0.0141
11,ACAGGCAC,-0.282
12,CAAACTAA,0.378
13,CCTACTGC,0.174
14,CGGATTAA,0.0745
15,AGGGGGCA,-0.218
16,AAGCACGC,-0.0861
17,GAGTAGAC,-0.133
18,CTGTGAAA,-0.0415
19,CGTGTGGC,-0.101
20,CCTCCCGA,-0.258
21,CTGTATAC,0.216
22,CGGGCCAA,-0.208
23,GTCCCGAA,-0.0443
24,CATACTCA,0.223
25,ACAAGGGC,-0.212

row,Sequence,binding signal [E-score]
1,TAATATCA,0.338
2,AACATTCG,0.0196
3,ATCCTCTA,0.0332
4,CTTATTTC,0.192
5,CTTTCCCA,-0.248
6,CAGAAGCC,-0.306
7,CTAAGTAC,0.171
8,CGAATGCG,-0.134
9,ACAGTGAG,-0.00295
10,GGAGTCCC,-0.289
11,CAATCACC,-0.0817
12,GTATCCCA,0.131
13,ACTGTCCG,-0.0982
14,CACTACCC,-0.0231
15,ACGCCTTG,-0.298
16,CCCTATCC,-0.189
17,CACCCAGC,0.0934
18,GCTACCAC,0.188
19,AGGCAATG,-0.145
20,CCTCCTCG,-0.224
21,AGGCCCAG,-0.121
22,TGAACAAA,-0.0466
23,AAGACATC,-0.0531
24,CCGGAGAG,-0.227
25,TCTTAAGA,0.00924

row,Sequence,binding signal [E-score]
1,CAGGGATA,-0.0119
2,CCGAAGAC,-0.161
3,ACATTGGC,-0.239
4,ACACAAAA,0.117
5,TAATACTA,0.419
6,ATTTGTCA,0.14
7,ACCCGACG,-0.304
8,ACCCCCCG,-0.422
9,ACCACAGC,-0.0851
10,ACCGCGCA,-0.19
11,CTGTACAG,-0.0652
12,ACGAACCA,0.000876
13,ATCTTAAT,0.144
14,AGACTAAA,-0.0347
15,ACAAACAA,0.0396
16,AGGGACAG,-0.117
17,ACTAGGTG,0.223
18,GGGGAATA,-0.106
19,CTTCGGTC,-0.265
20,GCTGTCTA,-0.117
21,ACGGCCAA,0.084
22,AAAAGAAT,0.14
23,CGTCCCTC,-0.379
24,ACTCACTC,0.0821
25,GACTCTGA,-0.135

row,Sequence,binding signal [E-score]
1,AATGTGAT,0.0808
2,CTGGGCGA,-0.199
3,CCGTTAGG,-0.371
4,CGCACTAA,0.297
5,CAAGGGAC,-0.185
6,CCAAGGAC,-0.0933
7,GCCATTCA,0.0688
8,ATGCGTCA,0.0769
9,AATGATGT,0.118
10,CGTGTAAG,-0.00352
11,AGGACCCA,-0.17
12,ATACCTTA,0.218
13,AAGTGCGG,-0.0664
14,AGTGAGAT,-0.127
15,CCCGCCCC,-0.42
16,AACTCGAC,0.0292
17,TGGGTTAA,0.0662
18,CGCTATTC,-0.0744
19,GCGCACCC,-0.259
20,AGCTTTTA,0.0678
21,ACTCGCGC,0.0743
22,AAAGGGTG,-0.254
23,ACGACCGG,0.0184
24,CGAGTCCC,-0.305
25,ATGTGAGA,0.108

row,Sequence,binding signal [E-score]
1,GATCTTAA,0.106
2,GATCAGCA,-0.184
3,GAGTGTTA,-0.0182
4,CTAGGCGC,-0.241
5,CCGAGAAG,-0.183
6,CATTGGGC,-0.0545
7,ACAATTAA,0.239
8,GTAGCATA,0.168
9,AGCACGCT,-0.189
10,GAACACCC,-0.222
11,CTCAAATA,-0.0553
12,AGGTACGC,-0.161
13,CTCTCACC,-0.216
14,AACGCGTG,-0.0182
15,CTACACCC,0.0221
16,GACCCTAA,-0.321
17,GTGTGGGA,-0.0343
18,AGGTTGTA,0.285
19,CCGGATTC,-0.093
20,TGCGCTAA,-0.0338
21,CTAGGCGA,-0.138
22,CTAGCTCA,0.0558
